{"source": "PubChem BioAssay (NCATS)", "key": {"Furin (Homo sapiens)": {"biological_target": "Furin (Homo sapiens) (UniProt P09958)", "sequence (P09958 whole entry, looked up)": "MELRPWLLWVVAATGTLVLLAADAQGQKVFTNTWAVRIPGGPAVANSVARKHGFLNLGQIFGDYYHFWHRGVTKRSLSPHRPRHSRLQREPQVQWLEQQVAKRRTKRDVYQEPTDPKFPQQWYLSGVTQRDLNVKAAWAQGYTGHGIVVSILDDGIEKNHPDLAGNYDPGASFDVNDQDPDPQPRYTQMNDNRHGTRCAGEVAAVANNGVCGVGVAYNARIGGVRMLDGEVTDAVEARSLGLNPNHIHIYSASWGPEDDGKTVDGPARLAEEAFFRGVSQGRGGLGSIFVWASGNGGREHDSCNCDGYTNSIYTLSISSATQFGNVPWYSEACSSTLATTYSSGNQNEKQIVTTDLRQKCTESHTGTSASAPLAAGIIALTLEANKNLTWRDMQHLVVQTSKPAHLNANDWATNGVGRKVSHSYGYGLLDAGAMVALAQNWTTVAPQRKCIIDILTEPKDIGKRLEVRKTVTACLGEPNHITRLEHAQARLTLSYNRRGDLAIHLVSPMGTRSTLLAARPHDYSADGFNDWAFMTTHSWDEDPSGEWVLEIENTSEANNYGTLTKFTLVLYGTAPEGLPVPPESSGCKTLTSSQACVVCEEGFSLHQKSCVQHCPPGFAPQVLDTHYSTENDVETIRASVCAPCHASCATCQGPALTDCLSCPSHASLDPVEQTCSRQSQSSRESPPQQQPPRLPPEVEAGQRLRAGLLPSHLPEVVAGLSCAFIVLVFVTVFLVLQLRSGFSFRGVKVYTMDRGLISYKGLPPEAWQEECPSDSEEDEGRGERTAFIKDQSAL", "experiment": "Furin counterscreen qHTS for Zika virus inhibitors (AID 1347149); also: nearly all actives have a fitted effect of over 70% in size; also: potency is read from the fitted curve at half-maximal effect;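 as to activity change, negative = inhibition: fluorescence gain from furin cutting a BOC-RVRR-AMC peptide substrate over 15 min; top concentration of the series differs between compounds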", "details": "furin enzymatic counterscreen, fluorogenic substrate; activity change, negative = inhibition: at 114 µM (top of the series)", "method_in_brief": "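Counterscreen measures cleavage of 2 microM BOC-RVRR-AMC, below its ~15 microM Km, by 5 nM full-length human furin at pH 7.0 after a 15-min compound preincubation. Inhibition derives from the 15-min fluorescence increase at 37C.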"}, "[1]": {"experiment": "Confirmatory screen GU Rhodamine qHTS for Zika virus inhibitors qHTS (AID 1347157); also: nearly all actives have a fitted effect of over 70% in size; also: potency is read from the fitted curve at half-maximal effect", "method_in_brief": "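Unlinked NS2B/NS3, 25 nM; Rhod110 peptide, 1.5 microM; compounds, up to 114 microM. Reaction run 15 min at RT in 10 mM Tris-HCl pH 8.0, 0.01% Tween 20; kinetic fluorescence change fitted with a 4-parameter Hill model.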"}, "[2]": {"experiment": "ZIKV-mCherry secondary qHTS for Zika virus inhibitors (AID 1347158); also: potency is read from the fitted curve at half-maximal effect", "details": "Vero cells, ZIKV-mCherry infection imaging, 48-72 h; activity change, negative = inhibition: at 49.2 µM (top of the series)", "method_in_brief": "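Compounds were tested in Vero monkey kidney cells infected with recombinant mCherry-expressing Zika virus at MOI 1 for 48-72 h at 37 °C. Fixed cells were nuclear-stained and imaged, and infection rate was taken as the fraction of mCherry-positive cells.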"}, "[3]": {"system": "Zika virus NS2B-NS3 protease (linked)", "experiment": "384 well plate NINDS AMC confirmatory qHTS for Zika virus inhibitors (AID 1347163); also: nearly all actives have a fitted effect of over 50% in size; also: potency is read from the fitted curve at half-maximal effect;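 as to activity change, negative = inhibition: fluorescence of AMC released from Ac-VKTGKR-AMC peptide cleaved by the protease; top concentration of the series differs between compounds; 0% = no-inhibitor control and -100% = no-enzyme control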", "method_in_brief": "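Fluorescence at 355/460 nm was read after 25 minutes of cleavage of 30 microM Ac-VKTGKR-AMC at room temperature, in the dark. Before substrate addition, compounds (up to 1 mM final) sat ~15 minutes with 5, 30 or 60 nM linked protease. Signals were normalized to no-enzyme and no-inhibitor wells.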"}, "[4]": {"system": "Zika virus NS2B-NS3 protease (linked construct)", "experiment": "384 well plate NINDS Rhodamine confirmatory qHTS for Zika virus inhibitors (AID 1347164); also: nearly all actives have a fitted effect of over 65% in size; also: potency is read from the fitted curve at half-maximal effect; as to activity change, negative = inhibition: top concentration of the series differs between compounds", "method_in_brief": "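Linked NS2B-NS3 protease (final 5, 30 or 60 nM) preincubated ~15 minutes with compounds, then 10 microM Ac-LKRR-Rhodamine 110 added. Fluorescence (485/538 nm) read after 25 minutes at room temperature, normalized to no-enzyme and no-inhibitor controls.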"}, "[5]": {"experiment": "Tertiary RLuc qRT-PCR qHTS assay for Zika virus inhibitors (AID 1347169); also: nearly all actives have a fitted effect of over 55% in size; also: potency is read from the fitted curve at half-maximal effect; as to activity change, negative = inhibition: top concentration of the series differs between compounds; % is scaled to controls: 0 for no effect and ±100 for the full control effect", "method_in_brief": "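Vero cells (1,000/well) infected with recombinant ZIKV-RLuc (Cambodian) at MOI 1-2 after compound addition, 48-72 hrs at 37 degrees C. Live-cell Renilla luciferase substrate added; luminescence read after 1-1.5 hrs.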"}, "[6]": {"experiment": "Confirmatory screen NINDS Rhodamine qHTS for Zika virus inhibitors (AID 1347161); also: nearly all actives have a fitted effect of over 60% in size; also: potency is read from the fitted curve at half-maximal effect;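 as to activity change, negative = inhibition: purified Zika NS2B-NS3 protease with linked NS2B cofactor domain and Rhodamine110 peptide substrate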", "method_in_brief": "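Enzyme (25 nM, linked NS2B-NS3) was preincubated 15 min with compound in 10 mM Tris-HCl pH 8.0, 0.01% Tween 20. Rhodamine110 substrate (1.5 microM) was then added and fluorescence read at start and after 15 min.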"}, "[7]": {"system": "Zika virus NS2B-NS3 protease (linked construct)", "experiment": "Confirmatory screen NINDS AMC qHTS for Zika virus inhibitors (AID 1347152);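 also: AMC fluorescence gain from cleaved Bz-Nle-KRR-AMC substrate over 15 min; top concentration of the series differs between compounds; 0% = no-inhibitor control and -100% = no-enzyme control; nearly all actives have a fitted effect of over 70% in size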", "method_in_brief": "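Linked NS2B-NS3 protease, 1 nM, in 10 mM Tris-HCl pH 8.0, 0.01% Tween 20; compounds preincubated 15 min at room temperature. Nle-KRR-AMC 10 microM (Km 18.3 µM); 15-min fluorescence change (340/450 nm) fitted to 4-parameter Hill.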"}}, "note": "The shares of active, inactive and inconclusive entries below differ from those in the screen. For some assays here: Potencies of inconclusive entries are left out as doubtful fits. Activity calls are given as the source filed them. Calls follow the shape of the dose curve; as a rule, active = well fitted curve in the direction sought with a large enough effect; inconclusive = small, poorly fitted or top-dose-only effect, or another doubt; inactive = no such curve, though single readings can be large; an effect the other way counts as inactive or inconclusive. Tags tell the direction and shape of the fitted curve."}
{"molecule": "CCCCc1nn2c(=O)cc(COC(=O)c3ccc(NC(=O)c4ccccc4Cl)cc3)nc2s1", "values": [{"measurement": "Potency", "setting": "Furin (Homo sapiens)", "value": "inconclusive [inhibitor, partial curve]"}, {"measurement": "Potency", "setting": "[1]", "value": "inconclusive [inhibitor, partial curve]"}, {"measurement": "Potency", "setting": "[2]", "value": "inconclusive [inhibitor, full curve]"}, {"measurement": "Potency", "setting": "[3]", "value": "inconclusive [inhibitor, single point]"}, {"measurement": "Potency", "setting": "[4]", "value": "inconclusive [inhibitor, partial curve, poor fit]"}, {"measurement": "Potency", "setting": "[5]", "value": "inconclusive [inhibitor, partial curve, poor fit]"}]}
{"molecule": "O=C(COc1ccccc1C(=O)OCC(=O)Nc1cccc2ccccc12)Nc1ccc(Br)cc1", "values": [{"measurement": "Potency", "setting": "Furin (Homo sapiens)", "value": "inactive"}, {"measurement": "Potency", "setting": "[1]", "value": "inconclusive [inhibitor, partial curve]"}, {"measurement": "Potency", "setting": "[2]", "value": "inconclusive [inhibitor, partial curve, poor fit]"}, {"measurement": "Potency", "setting": "[6]", "value": "inconclusive [inhibitor, partial curve]"}, {"measurement": "Potency", "setting": "[3]", "value": "inconclusive [inhibitor, partial curve, poor fit]"}, {"measurement": "Potency", "setting": "[4]", "value": "inactive"}]}
{"molecule": "COc1ccc(-c2ccnc(N[C@H]3CO[C@H]4[C@@H]3OC[C@@H]4NS(=O)(=O)c3ccc4ccccc4c3)n2)cc1", "values": [{"measurement": "Potency", "setting": "Furin (Homo sapiens)", "value": "inactive"}, {"measurement": "Potency", "setting": "[7]", "value": "inactive"}, {"measurement": "Potency", "setting": "[5]", "value": "inconclusive [inhibitor, single point]"}]}
{"molecule": "O=C(COC(=O)c1cccc(NC(=O)c2ccc(Br)cc2)c1)c1ccc(Cl)cc1", "values": [{"measurement": "Potency", "setting": "Furin (Homo sapiens)", "value": "inconclusive [inhibitor, partial curve, poor fit]"}, {"measurement": "Potency", "setting": "[1]", "value": "inactive"}, {"measurement": "Potency", "setting": "[6]", "value": "inconclusive [inhibitor, single point]"}, {"measurement": "activity change, negative = inhibition", "setting": "[5]", "value": "inactive: 9.14% [at 5.25 µM]"}]}
{"molecule": "O=C(OCc1cc(=O)n2c3c(sc2n1)CCCC3)c1cccc(NC(=O)c2ccccc2F)c1", "values": [{"measurement": "Potency", "setting": "Furin (Homo sapiens)", "value": "active: 59.1 µM"}, {"measurement": "Potency", "setting": "[1]", "value": "inconclusive [inhibitor, partial curve, poor fit]"}, {"measurement": "Potency", "setting": "[6]", "value": "inconclusive [inhibitor, partial curve, poor fit]"}, {"measurement": "Potency", "setting": "[5]", "value": "inconclusive [inhibitor, single point]"}]}
{"molecule": "O=C(Nc1ccccc1C(=O)OCc1cc(=O)n2nc(C3CC3)sc2n1)c1cccc(F)c1", "values": [{"measurement": "Potency", "setting": "Furin (Homo sapiens)", "value": "inactive"}, {"measurement": "Potency", "setting": "[1]", "value": "inactive"}, {"measurement": "Potency", "setting": "[6]", "value": "inactive"}, {"measurement": "activity change, negative = inhibition", "setting": "[5]", "value": "inactive: 35.2% [at 5.25 µM]"}]}
{"molecule": "O=C(O)CCc1ccc(-c2ccc(Cl)cc2)n1-c1cccc(C(F)(F)F)c1", "values": [{"measurement": "Potency", "setting": "Furin (Homo sapiens)", "value": "inactive"}, {"measurement": "Potency", "setting": "[1]", "value": "active: 7.08 µM"}, {"measurement": "Potency", "setting": "[2]", "value": "inconclusive [inhibitor, partial curve, poor fit]"}, {"measurement": "Potency", "setting": "[3]", "value": "inconclusive [inhibitor, full curve]"}, {"measurement": "Potency", "setting": "[5]", "value": "inconclusive [inhibitor, partial curve, poor fit]"}]}
{"molecule": "CC(Oc1ccccc1)C(=O)Nc1ccc(C(=O)OCc2cc(=O)n3nc(C(C)C)sc3n2)cc1", "note": "(stereo not given)", "values": [{"measurement": "Potency", "setting": "Furin (Homo sapiens)", "value": "inconclusive [inhibitor, partial curve]"}, {"measurement": "Potency", "setting": "[1]", "value": "inactive"}]}
{"molecule": "CCCCOC(=O)c1ccc(NC(=O)c2ccc3c(c2)CCN3S(=O)(=O)c2ccccc2)cc1", "values": [{"measurement": "Potency", "setting": "Furin (Homo sapiens)", "value": "inconclusive [inhibitor, partial curve, poor fit]"}, {"measurement": "Potency", "setting": "[1]", "value": "inactive"}]}
{"molecule": "Cc1cccc(C(=O)Nc2ccc(C(=O)OCc3cc(=O)n4nc(C5CC5)sc4n3)cc2)c1", "values": [{"measurement": "Potency", "setting": "Furin (Homo sapiens)", "value": "active: 26.4 µM"}, {"measurement": "Potency", "setting": "[1]", "value": "inconclusive [inhibitor, partial curve]"}, {"measurement": "Potency", "setting": "[6]", "value": "inconclusive [inhibitor, partial curve]"}, {"measurement": "Potency", "setting": "[3]", "value": "inactive"}, {"measurement": "Potency", "setting": "[4]", "value": "inconclusive [inhibitor, full curve, poor fit]"}]}
{"molecule": "O=C(OCc1cc(=O)n2nc(C3CC3)sc2n1)c1cccc(NC(=O)c2ccccc2Cl)c1", "values": [{"measurement": "Potency", "setting": "Furin (Homo sapiens)", "value": "inactive"}, {"measurement": "Potency", "setting": "[1]", "value": "inconclusive [inhibitor, partial curve, poor fit]"}]}
{"molecule": "CCOC(=O)c1ccc(NC(=O)CSc2nc(-c3cccs3)cc(C(F)(F)F)c2C#N)cc1", "values": [{"measurement": "Potency", "setting": "Furin (Homo sapiens)", "value": "inactive"}, {"measurement": "Potency", "setting": "[1]", "value": "inconclusive [inhibitor, single point]"}, {"measurement": "Potency", "setting": "[6]", "value": "inconclusive [inhibitor, partial curve, poor fit]"}, {"measurement": "Potency", "setting": "[5]", "value": "inactive"}]}
{"molecule": "O=C(Nc1ccc(C(=O)OCc2cc(=O)n3nc(C4CC4)sc3n2)cc1)c1ccccc1", "values": [{"measurement": "Potency", "setting": "Furin (Homo sapiens)", "value": "inconclusive [inhibitor, partial curve, poor fit]"}, {"measurement": "Potency", "setting": "[1]", "value": "inactive"}, {"measurement": "Potency", "setting": "[6]", "value": "inconclusive [inhibitor, partial curve, poor fit]"}]}
